Some of the results follow.
Experiments:
Assay in all cases: glycan array binding signal (z-score within array); higher = stronger binding
Conditions in all cases: glycan notation: IUPAC condensed, linker removed
Fuc(a1-2)Gal = target: Fuc(a1-2)Gal
In short: (§1)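 Negative Z-scores can be read as non-binding. The Z-score is calculated within each array and then averaged across arrays of one protein sequence at different concentrations or buffers and across linkers. Arrays, 3228 in all, were curated from the Consortium for Functional Glycomics database and kept only where the protein sequence was available.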

Fuc(a1-2)Gal(b1-3)GalNAc = target: Fuc(a1-2)Gal(b1-3)GalNAc
In short: as §1

[1] = target: Fuc(a1-2)Gal(b1-3)GalNAc(b1-3)Gal
In short: as §1

[2] = target: Fuc(a1-2)Gal(b1-3)GalNAc(b1-3)Gal(a1-4)Gal(b1-4)Glc
In short: as §1

[3] = target: Fuc(a1-2)Gal(b1-3)GalNAc(b1-4)[Neu5Ac(a2-3)]Gal(b1-4)Glc
In short: as §1

Fuc(a1-2)Gal(b1-3)GlcNAc = target: Fuc(a1-2)Gal(b1-3)GlcNAc
In short: as §1

[4] = target: Fuc(a1-2)Gal(b1-3)GlcNAc(b1-2)Man(a1-3)[Fuc(a1-2)Gal(b1-3)GlcNAc(b1-2)Man(a1-6)]Man(b1-4)GlcNAc(b1-4)GlcNAc
In short: as §1

[5] = target: Fuc(a1-2)Gal(b1-3)GlcNAc(b1-3)Gal(b1-4)Glc
In short: as §1

[6] = target: Fuc(a1-2)Gal(b1-3)GlcNAc(b1-3)[Gal(b1-4)[Fuc(a1-3)]GlcNAc(b1-6)]Gal(b1-4)Glc
In short: as §1

[7] = target: Fuc(a1-2)Gal(b1-3)[Fuc(a1-4)]GlcNAc
In short: as §1

[8] = target: Fuc(a1-2)Gal(b1-3)[Fuc(a1-4)]GlcNAc(b1-2)Man(a1-3)[Fuc(a1-2)Gal(b1-3)[Fuc(a1-4)]GlcNAc(b1-2)Man(a1-6)]Man(b1-4)GlcNAc(b1-4)GlcNAc
In short: as §1

Fuc(a1-2)Gal(b1-4)Glc = target: Fuc(a1-2)Gal(b1-4)Glc
In short: as §1

Fuc(a1-2)Gal(b1-4)Glc6S = target: Fuc(a1-2)Gal(b1-4)Glc6S
In short: as §1

Fuc(a1-2)Gal(b1-4)GlcNAc = target: Fuc(a1-2)Gal(b1-4)GlcNAc
In short: as §1

[9] = target: Fuc(a1-2)Gal(b1-4)GlcNAc(b1-2)Man(a1-3)[Fuc(a1-2)Gal(b1-4)GlcNAc(b1-2)Man(a1-6)]Man(b1-4)GlcNAc(b1-4)GlcNAc
In short: as §1

[10] = target: Fuc(a1-2)Gal(b1-4)GlcNAc(b1-3)Gal(b1-4)GlcNAc
In short: as §1

[11] = target: Fuc(a1-2)Gal(b1-4)GlcNAc(b1-3)Gal(b1-4)GlcNAc(b1-3)Gal(b1-4)GlcNAc
In short: as §1

[12] = target: Fuc(a1-2)Gal(b1-4)GlcNAc6S
In short: as §1

[13] = target: Fuc(a1-2)Gal(b1-4)[Fuc(a1-3)]GlcNAc
In short: as §1

[14] = target: Fuc(a1-2)Gal(b1-4)[Fuc(a1-3)]GlcNAc(b1-2)Man(a1-3)[Fuc(a1-2)Gal(b1-4)[Fuc(a1-3)]GlcNAc(b1-2)Man(a1-6)]Man(b1-4)GlcNAc(b1-4)GlcNAc
In short: as §1

[15] = target: Fuc(a1-2)Gal(b1-4)[Fuc(a1-3)]GlcNAc(b1-3)Gal(b1-4)[Fuc(a1-3)]GlcNAc
In short: as §1

[16] = target: Fuc(a1-2)Gal(b1-4)[Fuc(a1-3)]GlcNAc(b1-3)Gal(b1-4)[Fuc(a1-3)]GlcNAc(b1-3)Gal(b1-4)[Fuc(a1-3)]GlcNAc
In short: as §1

Fuc(a1-2)Gal6S(b1-4)Glc = target: Fuc(a1-2)Gal6S(b1-4)Glc
In short: as §1

[17] = target: Fuc(a1-2)Gal6S(b1-4)Glc6S
In short: as §1

[18] = target: Fuc(a1-2)Gal6S(b1-4)GlcNAc
In short: as §1

Fuc(a1-2)[Gal(a1-3)]Gal = target: Fuc(a1-2)[Gal(a1-3)]Gal
In short: as §1

[19] = target: Fuc(a1-2)[Gal(a1-3)]Gal(b1-3)GlcNAc
In short: as §1

[20] = target: Fuc(a1-2)[Gal(a1-3)]Gal(b1-3)GlcNAc(b1-2)Man(a1-3)[Fuc(a1-2)[Gal(a1-3)]Gal(b1-3)GlcNAc(b1-2)Man(a1-6)]Man(b1-4)GlcNAc(b1-4)GlcNAc
In short: as §1

[21] = target: Fuc(a1-2)[Gal(a1-3)]Gal(b1-4)Glc
In short: as §1

[22] = target: Fuc(a1-2)[Gal(a1-3)]Gal(b1-4)GlcNAc
In short: as §1

[23] = target: Fuc(a1-2)[Gal(a1-3)]Gal(b1-4)GlcNAc(b1-2)Man(a1-3)[Fuc(a1-2)[Gal(a1-3)]Gal(b1-4)GlcNAc(b1-2)Man(a1-6)]Man(b1-4)GlcNAc(b1-4)GlcNAc
In short: as §1

[24] = target: Fuc(a1-2)[Gal(a1-3)]Gal(b1-4)[Fuc(a1-3)]GlcNAc
In short: as §1

[25] = target: Fuc(a1-2)[Gal(a1-4)]Gal(b1-4)GlcNAc
In short: as §1

[26] = target: Fuc(a1-2)[GalNAc(a1-3)]Gal
In short: as §1

[27] = target: Fuc(a1-2)[GalNAc(a1-3)]Gal(b1-3)GlcNAc
In short: as §1

[28] = target: Fuc(a1-2)[GalNAc(a1-3)]Gal(b1-3)GlcNAc(b1-2)Man(a1-3)[Fuc(a1-2)[GalNAc(a1-3)]Gal(b1-3)GlcNAc(b1-2)Man(a1-6)]Man(b1-4)GlcNAc(b1-4)GlcNAc
In short: as §1

[29] = target: Fuc(a1-2)[GalNAc(a1-3)]Gal(b1-4)Glc
In short: as §1

[30] = target: Fuc(a1-2)[GalNAc(a1-3)]Gal(b1-4)GlcNAc
In short: as §1

[31] = target: Fuc(a1-2)[GalNAc(a1-3)]Gal(b1-4)GlcNAc(b1-2)Man(a1-3)[GalNAc(a1-3)[Fuc(a1-2)]Gal(b1-4)GlcNAc(b1-2)Man(a1-6)]Man(b1-4)GlcNAc(b1-4)GlcNAc
In short: as §1

[32] = target: Fuc(a1-2)[GalNAc(a1-3)]Gal(b1-4)GlcNAc(b1-3)Gal(b1-4)GlcNAc
In short: as §1

[33] = target: Fuc(a1-2)[GalNAc(a1-3)]Gal(b1-4)GlcNAc(b1-3)Gal(b1-4)GlcNAc(b1-3)Gal(b1-4)GlcNAc
In short: as §1

[34] = target: Fuc(a1-2)[GalNAc(a1-3)]Gal(b1-4)[Fuc(a1-3)]GlcNAc
In short: as §1

[35] = target: Fuc(a1-2)[GalNAc(a1-4)]Gal(b1-4)GlcNAc
In short: as §1

[36] = target: Fuc(a1-2)[GalNAc(b1-3)]Gal
In short: as §1

Fuc(a1-3)GlcNAc = target: Fuc(a1-3)GlcNAc
In short: as §1

[37] = target: Fuc(a1-3)[Gal(b1-4)]Glc6S
In short: as §1

[38] = target: Fuc(a1-3)[Gal(b1-4)]GlcNAc
In short: as §1

[39] = target: Fuc(a1-3)[Gal(b1-4)]GlcNAc(b1-2)Man(a1-3)[Fuc(a1-3)[Gal(b1-4)]GlcNAc(b1-2)Man(a1-6)]Man(b1-4)GlcNAc(b1-4)GlcNAc
In short: as §1

[40] = target: Fuc(a1-3)[Gal(b1-4)]GlcNAc(b1-2)Man(a1-6)[Gal(b1-4)GlcNAc(b1-2)Man(a1-3)]Man(b1-4)GlcNAc(b1-4)GlcNAc
In short: as §1

[41] = target: Fuc(a1-3)[Gal(b1-4)]GlcNAc(b1-3)Gal(b1-3)[Fuc(a1-4)]GlcNAc
In short: as §1

[42] = target: Fuc(a1-3)[Gal(b1-4)]GlcNAc(b1-4)Gal(b1-4)[Fuc(a1-3)]GlcNAc
In short: as §1

[43] = target: Fuc(a1-3)[Gal(b1-4)]GlcNAc(b1-4)Gal(b1-4)[Fuc(a1-3)]GlcNAc(b1-4)Gal(b1-4)[Fuc(a1-3)]GlcNAc
In short: as §1

[44] = target: Fuc(a1-3)[Gal(b1-4)]GlcNAc6S
In short: as §1

[45] = target: Fuc(a1-3)[Gal3S(b1-4)]Glc6S
In short: as §1

[46] = target: Fuc(a1-3)[Gal3S(b1-4)]GlcNAc
In short: as §1

[47] = target: Fuc(a1-3)[Gal3S(b1-4)]GlcNAc6S
In short: as §1

[48] = target: Fuc(a1-3)[GalNAc(b1-4)]GlcNAc
In short: as §1

[49] = target: Fuc(a1-3)[Neu5Ac(a2-3)]Gal(b1-4)GlcNAc(b1-3)GalNAc
In short: as §1

Fuc(a1-4)GlcNAc = target: Fuc(a1-4)GlcNAc
In short: as §1

Fuc(b1-3)GlcNAc = target: Fuc(b1-3)GlcNAc
In short: as §1

B1: Flo11 (Saccharomyces cerevisiae), Q1H8S8 (protein)
chain: MGSSHHHHHHSSGLVPRGSHMFPTALVPRGSSEGTSCNSIVNGCPNLDFNWHMDQQNIMQYTLDVTSVSWVQDNTYQITIHVKGKENIDLKYLWSLKIIGVTGPKGTVQLYGYNENTYLIDNPTDFTATFEVYATQDVNSCQVWMPNFQIQFEYLQGSAAQYASSWQWGTTSFDLSTGCNNYDNQGHSQTDFPGFYWNIDCDNNCGGTKSS
Fuc(a1-2)Gal
  glycan array binding signal (z-score): -0.507
Fuc(a1-2)Gal(b1-3)GalNAc
  glycan array binding signal (z-score): 0.413
[1]
  glycan array binding signal (z-score): -0.416
[2]
  glycan array binding signal (z-score): 0.73
[3]
  glycan array binding signal (z-score): 0.673
Fuc(a1-2)Gal(b1-3)GlcNAc
  glycan array binding signal (z-score): -0.501
[4]
  glycan array binding signal (z-score): -0.499
[5]
  glycan array binding signal (z-score): -0.358
[6]
  glycan array binding signal (z-score): -0.319
[7]
  glycan array binding signal (z-score): -0.496
[8]
  glycan array binding signal (z-score): 1.83
Fuc(a1-2)Gal(b1-4)Glc
  glycan array binding signal (z-score): -0.504
Fuc(a1-2)Gal(b1-4)Glc6S
  glycan array binding signal (z-score): -0.497
Fuc(a1-2)Gal(b1-4)GlcNAc
  glycan array binding signal (z-score): -0.508
[9]
  glycan array binding signal (z-score): -0.486
[10]
  glycan array binding signal (z-score): -0.01
[11]
  glycan array binding signal (z-score): 0.047
[12]
  glycan array binding signal (z-score): -0.486
[13]
  glycan array binding signal (z-score): -0.445
[14]
  glycan array binding signal (z-score): 1.84
[15]
  glycan array binding signal (z-score): -0.498
[16]
  glycan array binding signal (z-score): -0.499
Fuc(a1-2)Gal6S(b1-4)Glc
  glycan array binding signal (z-score): -0.497
[17]
  glycan array binding signal (z-score): -0.098
[18]
  glycan array binding signal (z-score): -0.501
Fuc(a1-2)[Gal(a1-3)]Gal
  glycan array binding signal (z-score): -0.504
[19]
  glycan array binding signal (z-score): -0.506
[20]
  glycan array binding signal (z-score): -0.49
[21]
  glycan array binding signal (z-score): -0.505
[22]
  glycan array binding signal (z-score): -0.507
[23]
  glycan array binding signal (z-score): -0.504
[24]
  glycan array binding signal (z-score): 0.644
[25]
  glycan array binding signal (z-score): -0.508
[26]
  glycan array binding signal (z-score): -0.49
[27]
  glycan array binding signal (z-score): -0.49
[28]
  glycan array binding signal (z-score): -0.389
[29]
  glycan array binding signal (z-score): -0.505
[30]
  glycan array binding signal (z-score): -0.498
[31]
  glycan array binding signal (z-score): -0.503
[32]
  glycan array binding signal (z-score): -0.487
[33]
  glycan array binding signal (z-score): 1.76
[34]
  glycan array binding signal (z-score): 0.366
[35]
  glycan array binding signal (z-score): 0.905
[36]
  glycan array binding signal (z-score): 1.45
Fuc(a1-3)GlcNAc
  glycan array binding signal (z-score): -0.5
[37]
  glycan array binding signal (z-score): 1.08
[38]
  glycan array binding signal (z-score): -0.478
[39]
  glycan array binding signal (z-score): -0.351
[40]
  glycan array binding signal (z-score): 0.357
[41]
  glycan array binding signal (z-score): -0.491
[42]
  glycan array binding signal (z-score): -0.495
[43]
  glycan array binding signal (z-score): -0.388
[44]
  glycan array binding signal (z-score): 0.889
[45]
  glycan array binding signal (z-score): 1.6
[46]
  glycan array binding signal (z-score): -0.463
[47]
  glycan array binding signal (z-score): 1.26
[48]
  glycan array binding signal (z-score): -0.505
[49]
  glycan array binding signal (z-score): 3.1
Fuc(a1-4)GlcNAc
  glycan array binding signal (z-score): -0.502
Fuc(b1-3)GlcNAc
  glycan array binding signal (z-score): -0.5

From the supplement of paper PMC8728848
